# Laboratory results: PubChem BioAssay (NCATS)
# Values joined by “and” are separate entries in the source; they are usually repeats but may differ in a detail not shown here. Equal values may be shown once. The inconclusive results got no clear call from the source; some entries with a clear call stand among them for comparison. For part of these data: Where the call is inconclusive, the potency comes from a doubtful curve fit. Active and inactive are the calls of the source. Unless noted, the call rests on the fitted dose curve; in most records, active means well fitted curve in the direction sought with a large enough effect; inconclusive means small, poorly fitted or top-dose-only effect, or another doubt; inactive means no such curve, though single readings can be large; an effect the other way counts as inactive or inconclusive.
# How the values were obtained:
# [1] = qHTS Screen of the MIPE 4.0 Collection Against Ewings Sarcoma (RDES) (AID 1259252); settings: RD-ES Ewing sarcoma viability, CellTiter-Glo, 48 h; series mostly up to 45.8 µM; further: nearly all actives have a fitted effect of over 35% in size
# In short: (§1)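 CellTiter-Glo luminescence after 48 h compound exposure (titration) gave viability; percent activity used DMSO-treated cells as no inhibition and medium-only wells as full inhibition. Cells grown in RPMI/5% FBS, dosed 4 h post-seeding.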
# [2] = qHTS Screen of the MIPE 4.0 Collection Against Ewings Sarcoma (TC71) (AID 1259253); settings: TC71 Ewing sarcoma viability, CellTiter-Glo, 48 h; series mostly up to 45.8 µM; further: nearly all actives have a fitted effect of over 40% in size
# In short: as §1
# [3] = qHTS Screen of the MIPE 4.0 Collection Against Ewings Sarcoma (EW8) (AID 1259255); settings: EW8 Ewing sarcoma viability, CellTiter-Glo, 48 h; series mostly up to 45.8 µM; further: nearly all actives have a fitted effect of over 35% in size;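 on viability: 100% = DMSO-treated cells and 0% = medium-only wells without cells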
# In short: as §1
# [4] = P-glycoprotein substrates identified in KB-8-5-11 adenocarcinoma cell line, qHTS therapeutic library screen (AID 1346987); settings: KB-8-5-11 (P-gp overexpressing) viability, CellTiter-Glo, 72 h; series mostly up to 44.5 µM; further: nearly all actives have a fitted effect of over 65% in size
# In short: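 Human cervical adenocarcinoma KB-8-5-11 cells, selected in colchicine to over-express P-gp and assayed without it, were exposed for 72 h to titrated compounds. An ATP-based luminescent viability signal gave AC50.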
# [5] = qHTS Assay for Identifying Gametocytocidal Compounds (AID 743244);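 on max response: on the % scale 0 is the no-effect control and ±100 the full control effect; actives lower the fluorescent signal which means gametocytes are killed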; settings: P. falciparum 3D7 stage III-V gametocytes, alamarBlue, 72 h; max response: active compounds read low
# In short: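 P. falciparum 3D7 stage III–V gametocytes (20,000 cells/well) were exposed to compounds for 72 h at 37 °C, 5% CO2. AlamarBlue was then added for 24 h; decreased resorufin fluorescence (Ex 525/Em 598 nm) indicated loss of viability.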
# [6] = Natriuretic polypeptide receptor (hNpr1) antagonism - Pilot counterscreen GloSensor control cell line (AID 1347045; calls by dose curve); settings: HEK293 cGMP GloSensor cells, SNP-stimulated luminescence, 20 min; series mostly up to 38.3 µM
# In short: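 The SNP-driven cGMP luminescence signal (50 uM, 20 min, room temperature) was measured in GloSensor HEK293 control cells. Compounds were tested as a LOPAC titration series and preincubated for 30-50 min.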
# [7] = target: Atrial natriuretic peptide receptor 2 (Homo sapiens) (UniProt P20594); assay: Natriuretic polypeptide receptor (hNpr2) antagonism - Pilot subtype selectivity assay (AID 1347050; calls by dose curve); settings: NPR2-expressing cells, cGMP antagonist-mode read-out; series mostly up to 38.3 µM
# Chain of UniProt P20594 (P20594 whole entry, looked up): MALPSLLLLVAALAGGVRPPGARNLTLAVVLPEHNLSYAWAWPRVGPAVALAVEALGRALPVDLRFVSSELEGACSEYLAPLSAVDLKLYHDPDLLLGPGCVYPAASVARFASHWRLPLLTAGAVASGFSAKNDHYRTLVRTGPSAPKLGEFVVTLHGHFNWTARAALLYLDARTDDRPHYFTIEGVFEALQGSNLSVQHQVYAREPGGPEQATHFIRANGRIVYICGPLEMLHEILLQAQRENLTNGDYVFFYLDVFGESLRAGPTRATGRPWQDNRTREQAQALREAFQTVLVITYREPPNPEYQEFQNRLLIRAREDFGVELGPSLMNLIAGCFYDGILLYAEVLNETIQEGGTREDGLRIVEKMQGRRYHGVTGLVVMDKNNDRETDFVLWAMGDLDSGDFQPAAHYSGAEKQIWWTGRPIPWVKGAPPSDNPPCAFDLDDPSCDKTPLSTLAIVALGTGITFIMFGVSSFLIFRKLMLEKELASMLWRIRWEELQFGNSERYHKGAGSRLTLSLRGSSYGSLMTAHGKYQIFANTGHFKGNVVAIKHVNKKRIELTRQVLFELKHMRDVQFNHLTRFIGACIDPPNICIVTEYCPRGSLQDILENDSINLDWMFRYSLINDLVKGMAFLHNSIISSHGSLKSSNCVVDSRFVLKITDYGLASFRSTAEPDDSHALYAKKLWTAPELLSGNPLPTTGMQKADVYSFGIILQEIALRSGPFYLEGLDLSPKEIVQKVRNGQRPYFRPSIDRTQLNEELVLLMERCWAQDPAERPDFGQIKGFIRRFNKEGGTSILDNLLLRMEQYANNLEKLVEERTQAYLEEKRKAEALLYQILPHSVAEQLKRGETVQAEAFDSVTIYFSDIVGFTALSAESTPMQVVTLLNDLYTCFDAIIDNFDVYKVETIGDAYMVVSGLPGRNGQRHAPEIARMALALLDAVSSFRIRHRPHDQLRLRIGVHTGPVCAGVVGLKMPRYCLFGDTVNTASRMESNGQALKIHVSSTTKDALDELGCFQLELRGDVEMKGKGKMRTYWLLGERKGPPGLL
# In short: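 Antagonist mode: compounds (LOPAC1280, seven 1:5 dilutions) added 30 min before 1 nM hNppC stimulation of hNpr2-HEK293 cGMP-sensor cells; luminescence read before and 20 min after agonist at ambient temperature.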
# [8] = qHTS Screen of the MIPE 4.0 Collection Against Ewings Sarcoma (TC32) (AID 1259256); settings: TC32 Ewing sarcoma viability, CellTiter-Glo, 48 h; series mostly up to 45.8 µM; further: nearly all actives have a fitted effect of over 45% in size
# In short: as §1
# [9] = target: Atrial natriuretic peptide receptor 1 (Homo sapiens) (UniProt P16066); assay: Natriuretic polypeptide receptor (hNpr1) antagonism - Pilot screen (AID 1347049; calls by dose curve;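 further: HEK293 cells with hNpr1 and GloSensor cGMP luciferase stimulated by 0.1 nM hNppA; agonist-evoked cGMP luminescence read 20 min after hNppA addition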); settings: hNpr1 cells, antagonist mode cGMP read-out; series mostly up to 57.5 µM
# Chain of UniProt P16066 (P16066 whole entry, looked up): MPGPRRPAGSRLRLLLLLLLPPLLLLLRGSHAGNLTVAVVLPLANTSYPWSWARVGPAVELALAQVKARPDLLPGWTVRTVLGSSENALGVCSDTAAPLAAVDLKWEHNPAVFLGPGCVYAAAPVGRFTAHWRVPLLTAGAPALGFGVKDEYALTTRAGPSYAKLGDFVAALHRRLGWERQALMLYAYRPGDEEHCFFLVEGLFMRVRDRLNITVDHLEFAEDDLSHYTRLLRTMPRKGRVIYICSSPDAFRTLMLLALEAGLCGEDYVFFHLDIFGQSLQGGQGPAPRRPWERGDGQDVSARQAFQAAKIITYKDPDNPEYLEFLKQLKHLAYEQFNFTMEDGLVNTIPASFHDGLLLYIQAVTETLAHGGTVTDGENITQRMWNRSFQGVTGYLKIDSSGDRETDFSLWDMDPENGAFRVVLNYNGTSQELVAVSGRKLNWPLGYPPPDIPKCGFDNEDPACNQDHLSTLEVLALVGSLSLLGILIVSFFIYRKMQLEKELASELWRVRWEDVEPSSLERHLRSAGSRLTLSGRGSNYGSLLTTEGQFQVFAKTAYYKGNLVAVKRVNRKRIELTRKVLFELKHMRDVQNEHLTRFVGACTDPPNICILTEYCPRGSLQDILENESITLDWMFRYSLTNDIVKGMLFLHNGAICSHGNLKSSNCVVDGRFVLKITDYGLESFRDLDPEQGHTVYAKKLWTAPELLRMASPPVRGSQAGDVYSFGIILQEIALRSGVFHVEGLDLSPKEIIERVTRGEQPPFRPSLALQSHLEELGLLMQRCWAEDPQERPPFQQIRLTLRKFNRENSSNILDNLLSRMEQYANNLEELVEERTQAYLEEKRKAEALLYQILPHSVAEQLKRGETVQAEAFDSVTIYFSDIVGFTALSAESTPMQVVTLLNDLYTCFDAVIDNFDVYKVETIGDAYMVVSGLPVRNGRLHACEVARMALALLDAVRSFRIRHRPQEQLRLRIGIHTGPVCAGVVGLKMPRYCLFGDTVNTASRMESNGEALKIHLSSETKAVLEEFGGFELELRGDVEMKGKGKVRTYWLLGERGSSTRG
# In short: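 Receptor antagonism read as cGMP-dependent luminescence in hNpr1/pGS-40F HEK293 cells: pre-read after 30 min compound exposure, post-read 20 min after hNppA agonist at 0.1 nM final, all at room temperature, protected from light; A-71915 titration as control.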
# Potency means the concentration at half of the fitted maximal effect; tags describe the fitted curve by direction and shape.
compound,measurement,setting,value
O=C(O)C(O)Cc1ccc(O)c(O)c1 (stereo not given),Potency,[1],"inconclusive: 29.6 µM [inhibitor, single point]"
same,Potency,[2],"inconclusive: 33.2 µM [inhibitor, single point]"
same,Potency,[3],"inconclusive: 29.6 µM [inhibitor, single point]"
same,Potency,[4],inactive
CC(C)(C)NC(=O)Nc1cccc(Nc2ncc(F)c(NC(C)(C)CO)n2)c1,Potency,[1],"inconclusive: 10.5 µM [inhibitor, partial curve]"
same,Potency,[2],"inconclusive: 4.18 µM [inhibitor, full curve]"
same,Potency,[3],"inconclusive: 2.64 µM [inhibitor, full curve]"
same,Potency,[4],"inconclusive: 20.9 µM [inhibitor, single point] and inconclusive: 29.1 µM [inhibitor, single point]"
CN1CCN(CCCN2c3ccccc3Sc3ccc(Cl)cc32)CC1,Potency,[5],"inconclusive: 35.5 µM [inhibitor, single point] and inconclusive: 6.31 µM [inhibitor, single point]"
same,Potency,[1],"inconclusive: 33.2 µM [inhibitor, single point]"
same,Potency,[2],"inconclusive: 26.4 µM [inhibitor, single point]"
same,Potency,[3],"inconclusive: 37.2 µM [inhibitor, single point]"
same,Potency,[6],"inconclusive: 11.7 µM [inhibitor, partial curve, poor fit]"
same,Potency,[7],active: 18.5 µM
CC[C@H]1OC(=O)[C@H](C)[C@@H](O[C@H]2C[C@@](C)(OC)[C@@H](O)[C@H](C)O2)[C@H](C)[C@@H](O[C@@H]2O[C@H](C)C[C@H](N(C)C)[C@H]2O)[C@](C)(O)C[C@H](C)C(=NOCOCCOC)[C@H](C)[C@@H](O)[C@]1(C)O,Potency,[1],inactive
same,Potency,[2],inactive
same,Potency,[8],"inconclusive: 20.9 µM [inhibitor, single point]"
NC(=O)OCC(COC(N)=O)c1ccccc1,Potency,[1],inactive
same,Potency,[2],"inconclusive: 18.7 µM [inhibitor, partial curve, poor fit]"
same,Potency,[3],"inconclusive: 7.43 µM [inhibitor, partial curve, poor fit]"
same,Potency,[9],inactive
COc1ccc2cccc(CCNC(C)=O)c2c1,Potency,[1],"inconclusive: 33.2 µM [inhibitor, single point]"
same,Potency,[2],"inconclusive: 5.9 µM [inhibitor, partial curve, poor fit]"
same,Potency,[8],inactive
CC1COc2c(N3CCN(C)CC3)c(F)cc3c(=O)c(C(=O)O)cn1c23 (stereo not given),max response,[5],inactive: 18.2% and inactive: 27.4%
same,Potency,[1],"inconclusive: 20.9 µM [inhibitor, single point]"
same,Potency,[2],"inconclusive: 20.9 µM [inhibitor, single point]"
same,Potency,[3],inactive
CN[C@@H](C)C(=O)N[C@H]1CN(C(=O)CC(C)C)CC[C@H]2CC[C@@H](C(=O)NC(c3ccccc3)c3ccccc3)N2C1=O,Potency,[1],"inconclusive: 33.2 µM [inhibitor, single point]"
same,Potency,[2],"inconclusive: 37.2 µM [inhibitor, single point]"
same,Potency,[8],"inconclusive: 33.2 µM [inhibitor, single point]"
CC(C)(Cc1ccc2ccccc2c1)NC[C@@H](O)COc1cccc(Cl)c1C#N,Potency,[1],"inconclusive: 16.6 µM [inhibitor, partial curve, poor fit]"
same,Potency,[2],active: 16.6 µM
same,Potency,[3],"inconclusive: 14.8 µM [inhibitor, partial curve, poor fit]"
same,Potency,[4],inactive
CCOC(=O)c1c(C)n(C)c2ccc(O)cc12,Potency,[1],"inconclusive: 33.2 µM [inhibitor, single point]"
same,Potency,[2],"inconclusive: 37.2 µM [inhibitor, single point]"
same,Potency,[3],"inconclusive: 37.2 µM [inhibitor, partial curve, poor fit]"
same,Potency,[4],inactive
CCCCOc1ccc(C(=O)Nc2ccc(F)cc2F)cc1,Potency,[1],inactive
same,Potency,[2],inactive
same,Potency,[8],inactive
CCn1cc(C(=O)O)c(=O)c2ccc(C)nc21,Potency,[1],inactive
same,Potency,[2],inactive
same,Potency,[8],inactive
CC(C)(OCc1nn(Cc2ccccc2)c2ccccc12)C(=O)O,Potency,[1],"inconclusive: 8.33 µM [inhibitor, full curve]"
same,Potency,[2],active: 7.43 µM
same,Potency,[8],"inconclusive: 16.6 µM [inhibitor, partial curve, poor fit]"
CC(=O)OCC(=O)[C@@]1(O)CC[C@H]2[C@@H]3CCC4=CC(=O)C=C[C@]4(C)[C@@H]3[C@@H](O)C[C@@]21C,Potency,[1],inactive
same,Potency,[2],active: 9.35 µM
same,Potency,[8],"inconclusive: 37.2 µM [inhibitor, single point]"
CCC(=O)OCC(=O)[C@@]1(OC(=O)CC)[C@@H](C)C[C@@H]2[C@H]3CCC4=CC(=O)C=C[C@]4(C)[C@@]3(F)[C@@H](O)C[C@@]21C,Potency,[1],inactive
same,Potency,[2],"inconclusive: 37.2 µM [inhibitor, single point]"
same,Potency,[3],"inconclusive: 33.2 µM [inhibitor, single point]"
same,Potency,[4],"inconclusive: 14.6 µM [inhibitor, partial curve]"
NS(=O)(=O)c1ccc(NC2=CC(=O)c3ccccc3C2=O)cc1,Potency,[1],"inconclusive: 23.5 µM [inhibitor, partial curve]"
same,Potency,[2],"inconclusive: 2.35 µM [inhibitor, full curve]"
same,Potency,[8],"inconclusive: 14.8 µM [inhibitor, partial curve, poor fit]"
O=C(OCC#CCSc1nnc(-c2cccc3ccccc23)o1)c1cc2ccccc2s1,Potency,[1],"inconclusive: 18.7 µM [inhibitor, partial curve, poor fit]"
same,Potency,[2],"inconclusive: 20.9 µM [inhibitor, partial curve, poor fit]"
same,Potency,[8],"inconclusive: 20.9 µM [inhibitor, single point]"
Cc1cn([C@@H]2C[C@@H](O)[C@H](CO)O2)c(=O)[nH]c1=O,Potency,[1],inactive
same,Potency,[2],"inconclusive: 37.2 µM [inhibitor, partial curve, poor fit]"
same,Potency,[8],inactive
COc1ccc2cc(-c3nc(-c4ccc(S(C)=O)cc4)[nH]c3-c3ccncc3)ccc2c1 (stereo not given),Potency,[1],"inconclusive: 26.4 µM [inhibitor, single point]"
same,Potency,[2],"inconclusive: 33.2 µM [inhibitor, single point]"
same,Potency,[3],"inconclusive: 26.4 µM [inhibitor, single point]"
same,Potency,[4],"inconclusive: 29.1 µM [inhibitor, single point]"
CC1(C)C(=O)N(CCN2CCC(C(=O)c3ccc(F)cc3)CC2)c2ccccc21,Potency,[1],inactive
same,Potency,[2],inactive
same,Potency,[8],"inconclusive: 20.9 µM [inhibitor, single point]"
C=C1C(=O)OC(CCCCCCCC)C1C(=O)O (stereo not given),Potency,[1],"inconclusive: 37.2 µM [inhibitor, single point]"
same,Potency,[2],"inconclusive: 26.4 µM [inhibitor, partial curve]"
same,Potency,[3],"inconclusive: 37.2 µM [inhibitor, single point]"
same,Potency,[4],"inconclusive: 37.2 µM [inhibitor, single point]"
OC(CN1CCN(c2cccc(Cl)c2)CC1)C(c1ccccc1)c1ccccc1 (stereo not given),Potency,[1],inactive
same,Potency,[2],"inconclusive: 26.4 µM [inhibitor, single point]"
same,Potency,[3],"inconclusive: 37.2 µM [inhibitor, single point]"
same,Potency,[4],"inconclusive: 23.1 µM [inhibitor, partial curve, poor fit]"
same,Potency,[9],"inconclusive: 26.9 µM [inhibitor, single point]"
CCC[C@@H](NC(=O)[C@@H]1[C@H]2CCC[C@@H]2CN1C(=O)[C@@H](NC(=O)[C@@H](NC(=O)c1cnccn1)C1CCCCC1)C(C)(C)C)C(=O)C(=O)NC1CC1,Potency,[1],inactive
same,Potency,[2],"inconclusive: 14.8 µM [inhibitor, partial curve]"
same,Potency,[8],"inconclusive: 23.5 µM [inhibitor, single point]"
C[C@H]1c2cccc(O)c2C(O)=C2C(=O)[C@]3(O)C(O)=C(C(N)=O)C(=O)[C@@H](N(C)C)[C@@H]3[C@@H](O)[C@@H]21,Potency,[5],"inconclusive: 5.62 µM [inhibitor, single point]"
same,Potency,[1],"inconclusive: 37.2 µM [inhibitor, single point]"
same,Potency,[2],"inconclusive: 18.7 µM [inhibitor, partial curve]"
same,Potency,[3],"inconclusive: 33.2 µM [inhibitor, single point]"
same,Potency,[6],inactive
CCOC(=O)c1c(CSc2ccccc2)n(C)c2cc(Br)c(O)c(CN(C)C)c12,Potency,[1],"inconclusive: 23.5 µM [inhibitor, single point]"
same,Potency,[2],active: 16.6 µM
same,Potency,[3],active: 20.9 µM
same,Potency,[4],"inconclusive: 14.8 µM [inhibitor, partial curve]"
O=C1c2c(O)cc(O)cc2OC(c2ccc(O)c(O)c2)C1O (stereo not given),Potency,[1],"inconclusive: 33.2 µM [inhibitor, single point]"
same,Potency,[2],"inconclusive: 33.2 µM [inhibitor, single point]"
same,Potency,[8],"inconclusive: 33.2 µM [inhibitor, single point]"
N#Cc1c(N(CC(=O)O)CC(=O)O)sc(C(=O)O)c1CC(=O)O,Potency,[1],inactive
same,Potency,[2],inactive
same,Potency,[8],"inconclusive: 0.0017 µM [inhibitor, full curve, poor fit]"
CN(C)N=Nc1nc[nH]c1C(N)=O,Potency,[1],active: 18.7 µM
same,Potency,[2],"inconclusive: 18.7 µM [inhibitor, partial curve]"
same,Potency,[3],inactive
same,Potency,[4],active: 1.87 µM
COc1cc(N2CCC(N3CCN(C)CC3)CC2)ccc1Nc1ncnc(Nc2ccccc2S(=O)(=O)C(C)C)n1,Potency,[1],"inconclusive: 18.7 µM [inhibitor, partial curve, poor fit]"
same,Potency,[2],"inconclusive: 14.8 µM [inhibitor, partial curve, poor fit]"
same,Potency,[8],"inconclusive: 16.6 µM [inhibitor, partial curve, poor fit]"
